Measured values as given in the supplement of paper PMC4967469.
IC50 is the fitted dose that halves viability relative to control wells, and lower means more sensitive; where the fit passes the top or lowest dose, that dose stands as a limit. AUC, from the same fit, is the share of area under the viability curve across the 256-fold dose range; the more sensitive the line, the further below 1. For some of these results: Any top dose called inferred was derived from the fitted curves, not read from the paper. For some of these results: Drugs with an entry number were screened twice under separate entries, and the two screens often disagree.

Legend:
Experiment in all cases: Viability of human cancer cell lines after 72 h of drug (GDSC screen)
Thapsigargin = compound: C/C=C(/C)C(=O)O[C@H]1C(C)=C2[C@H]([C@@H]1OC(=O)CCCCCCC)[C@@](C)(OC(C)=O)C[C@H](OC(=O)CCC)[C@@]1(O)[C@H]2OC(=O)[C@@]1(C)O [Thapsigargin]; conditions: top dose 0.512 µM; top dose inferred
Method: (§1)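 Human cancer cell lines in 384-well plates, medium with 10% serum, drug for 72 h over a 256-fold dose range (nine 2-fold or five 4-fold steps up to the top dose). Adherent lines were fixed and stained with the nucleic acid dye Syto60, suspension lines read with resazurin; signal relative to control wells, capped at 0 and 100%. One two-parameter sigmoid per drug and line, fitted in a mixed model over all curves with the slope shared within a line.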

Zibotentan = compound: COc1nc(C)cnc1NS(=O)(=O)c1cccnc1-c1ccc(-c2nnco2)cc1 [Zibotentan]; conditions: top dose 20 µM; top dose inferred
Method: as §1

ABT-869 = compound: Cc1ccc(F)c(NC(=O)Nc2ccc(-c3cccc4[nH]nc(N)c34)cc2)c1 [ABT-869]; conditions: top dose 1.024 µM; top dose inferred
Method: as §1

CMK = compound: Cc1ccc(-c2c(C(=O)CCl)n(CCCO)c3ncnc(N)c23)cc1 [CMK]; conditions: top dose 4 µM; top dose inferred
Method: as §1

GSK269962A = compound: CCn1c(-c2nonc2N)nc2cnc(Oc3cccc(NC(=O)c4ccc(OCCN5CCOCC5)cc4)c3)cc21 [GSK269962A]; conditions: top dose inferred
Method: as §1

QL-X-138 = compound: C=CC(=O)Nc1cc(-n2c(=O)ccc3cnc4ccc(-c5cn[nH]c5)cc4c32)ccc1C [QL-X-138]; conditions: top dose 10.24 µM; top dose inferred
Method: as §1

CHIR-99021 = compound: Cc1cnc(-c2cnc(NCCNc3ccc(C#N)cn3)nc2-c2ccc(Cl)cc2Cl)[nH]1 [CHIR-99021]
Method: as §1

MPS-1-IN-1 = compound: COc1cc(N2CCC(O)CC2)ccc1Nc1cc(Nc2ccccc2S(=O)(=O)C(C)C)c2cc[nH]c2n1 [MPS-1-IN-1]; conditions: top dose 20 µM; top dose inferred
Method: as §1

CP466722 = compound: COc1cc2ncnc(-n3nc(-c4ccccn4)nc3N)c2cc1OC [CP466722]; conditions: top dose 16 µM; top dose inferred
Method: as §1

(5Z)-7-Oxozeaenol = compound: COc1cc(O)c2c(c1)/C=C/C[C@H](O)[C@H](O)C(=O)/C=C\C[C@H](C)OC2=O [(5Z)-7-Oxozeaenol]; conditions: top dose 10 µM; top dose inferred
Method: as §1

KU-55933 = compound: O=c1cc(-c2cccc3c2Sc2ccccc2S3)oc(N2CCOCC2)c1 [KU-55933]; conditions: top dose 10 µM
Method: as §1

ABT-888 = compound: C[C@]1(c2nc3c(C(N)=O)cccc3[nH]2)CCCN1 [ABT-888]; conditions: top dose 5 µM; top dose inferred
Method: as §1

Cytarabine = compound: Nc1ccn([C@@H]2O[C@H](CO)[C@@H](O)[C@@H]2O)c(=O)n1 [Cytarabine]; conditions: top dose 2 µM
Method: as §1

[1] = top dose 2.5 µM, screen: GDSC drug entry 127
[2] = top dose 2.56 µM, screen: GDSC drug entry 154
[3] = top dose 5 µM, screen: GDSC drug entry 1192
[4] = top dose 10 µM, screen: GDSC drug entry 1241, top dose inferred

Cell Line	AUC (Thapsigargin)	IC50 (Thapsigargin)	AUC (Zibotentan)	IC50 (Zibotentan)	AUC (ABT-869)	IC50 (ABT-869)	AUC (CMK)	IC50 (CMK)	AUC (GSK269962A; [1])	IC50 (GSK269962A; [1])	AUC (QL-X-138)	IC50 (QL-X-138)	AUC (CHIR-99021; [2])	IC50 (CHIR-99021; [2])	AUC (MPS-1-IN-1)	IC50 (MPS-1-IN-1)	AUC (CP466722)	IC50 (CP466722)	AUC ((5Z)-7-Oxozeaenol)	IC50 ((5Z)-7-Oxozeaenol)	AUC (GSK269962A; [3])	IC50 (GSK269962A; [3])	AUC (KU-55933)	IC50 (KU-55933)	AUC (ABT-888)	IC50 (ABT-888)	AUC (CHIR-99021; [4])	IC50 (CHIR-99021; [4])	AUC (Cytarabine)	IC50 (Cytarabine)
BC-3 (B-cell lymphoma, suspension)	0.203	4.83 nM	0.975	> 20000 nM	0.986	> 1020 nM	0.952	> 4000 nM	0.938	> 2500 nM	0.551	865 nM	0.989	> 2560 nM	0.833	11000 nM	0.712	3680 nM	–	–	–	–	–	–	–	–	–	–	–	–
CAL-148 (breast, suspension)	0.91	> 512 nM	0.99	> 20000 nM	0.988	> 1020 nM	0.956	> 4000 nM	0.967	> 2500 nM	0.716	2470 nM	0.99	> 2560 nM	0.944	> 20000 nM	0.949	> 16000 nM	–	–	–	–	–	–	–	–	–	–	–	–
CP67-MEL (melanoma, adherent)	–	–	–	–	–	–	0.922	> 4000 nM	–	–	–	–	–	–	–	–	–	–	–	–	–	–	–	–	–	–	–	–	–	–
EW-12 (Ewing sarcoma, suspension)	–	–	–	–	–	–	0.97	> 4000 nM	0.929	> 2500 nM	–	–	–	–	–	–	–	–	–	–	–	–	–	–	–	–	–	–	–	–
KP-N-RT-BM-1 (neuroblastoma, semi-adherent)	–	–	–	–	–	–	0.733	1440 nM	–	–	–	–	–	–	–	–	–	–	–	–	–	–	–	–	–	–	–	–	–	–
NCI-H128 (small cell lung carcinoma, suspension)	–	–	–	–	–	–	0.843	> 4000 nM	0.968	> 2500 nM	–	–	–	–	–	–	–	–	–	–	–	–	–	–	–	–	–	–	–	–
NK-92MI (lymphoid neoplasm, suspension)	0.323	10.7 nM	–	–	–	–	0.793	1680 nM	0.897	> 2500 nM	–	–	0.986	> 2560 nM	–	–	0.772	5740 nM	–	–	–	–	–	–	–	–	–	–	–	–
VAL (B-cell lymphoma, suspension)	0.551	44 nM	0.987	> 20000 nM	0.987	> 1020 nM	–	–	0.584	265 nM	0.504	655 nM	0.986	> 2560 nM	0.911	> 20000 nM	0.62	2140 nM	0.627	1400 nM	0.929	> 5000 nM	0.967	> 10000 nM	0.987	> 5000 nM	0.984	> 10000 nM	0.444	87.9 nM
VMRC-RCZ (kidney, adherent)	0.347	–	0.983	> 20000 nM	0.963	> 1020 nM	–	–	–	–	0.679	2220 nM	0.974	> 2560 nM	0.959	> 20000 nM	0.769	7030 nM	0.652	1780 nM	0.811	3200 nM	0.963	> 10000 nM	0.98	> 5000 nM	0.883	> 10000 nM	0.838	1680 nM
WM793B (melanoma, adherent)	0.12	< 2 nM	0.982	> 20000 nM	0.979	> 1020 nM	–	–	–	–	0.943	> 10200 nM	0.92	> 2560 nM	0.922	> 20000 nM	0.981	> 16000 nM	0.481	550 nM	0.873	> 5000 nM	0.983	> 10000 nM	0.982	> 5000 nM	0.832	7380 nM	0.676	412 nM
WM1552C (melanoma, adherent)	0.192	3.83 nM	0.986	> 20000 nM	0.982	> 1020 nM	–	–	–	–	0.951	> 10200 nM	0.987	> 2560 nM	0.974	> 20000 nM	0.664	2860 nM	0.286	154 nM	0.979	> 5000 nM	0.957	> 10000 nM	0.988	> 5000 nM	0.97	> 10000 nM	0.922	> 2000 nM
WM-115 (melanoma, adherent)	0.38	13.8 nM	0.982	> 20000 nM	0.948	> 1020 nM	–	–	–	–	0.424	377 nM	0.897	> 2560 nM	0.861	> 20000 nM	0.765	7120 nM	0.489	580 nM	0.94	> 5000 nM	0.958	> 10000 nM	0.962	> 5000 nM	0.843	9620 nM	0.881	> 2000 nM
YAPC (pancreas, adherent)	0.628	78.7 nM	0.983	> 20000 nM	0.982	> 1020 nM	–	–	–	–	0.902	> 10200 nM	0.984	> 2560 nM	0.966	> 20000 nM	0.908	> 16000 nM	0.882	> 10000 nM	0.969	> 5000 nM	0.984	> 10000 nM	0.98	> 5000 nM	0.981	> 10000 nM	0.902	> 2000 nM
huH-1 (liver, adherent)	0.548	44.5 nM	0.984	> 20000 nM	0.98	> 1020 nM	–	–	–	–	0.984	> 10200 nM	0.984	> 2560 nM	0.984	> 20000 nM	0.984	> 16000 nM	0.915	> 10000 nM	0.891	> 5000 nM	0.934	> 10000 nM	0.98	> 5000 nM	0.947	> 10000 nM	0.724	639 nM
